Experimental findings from the supplement of paper PMC8728848 are described below.

Holding throughout (assay): glycan array binding signal (z-score within array); higher = stronger binding
Conditions in all cases: glycan notation: IUPAC condensed, linker removed

Experiment [1] has as its target Neu5Ac9Ac(a2-3)Gal(b1-4)GlcNAc. Put shortly: (§1)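 From the Consortium for Functional Glycomics database, 3228 arrays were curated, keeping only those whose protein sequence was available. Binding is given as a within-array Z-score averaged across arrays sharing a protein sequence and across linkers. Negative Z-scores can be read as non-binding.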
The target of experiment [2] is Neu5Ac9Ac(a2-6)Gal(b1-4)GlcNAc. Put shortly:
as §1

Experiment [3] deals with Neu5Gc(a2-3)Gal(b1-3)GlcNAc. Put shortly:
as §1

Experiment [4] has as its target Neu5Gc(a2-3)Gal(b1-3)[Fuc(a1-4)]GlcNAc. The procedure, abridged:
as §1

A further experiment has as its target Neu5Gc(a2-3)Gal(b1-4)Glc. Put shortly:
as §1

For experiment [5], the target named is Neu5Gc(a2-3)Gal(b1-4)GlcNAc. The procedure, abridged:
as §1

Experiment [6] concerns the target Neu5Gc(a2-3)Gal(b1-4)[Fuc(a1-3)]GlcNAc. Put shortly: as §1
Experiment [7] addresses Neu5Gc(a2-6)Gal(b1-4)GlcNAc. Put shortly: as §1
A further experiment concerns the target Neu5Gc(a2-6)GalNAc. Put shortly:
as §1

In experiment [8] the target is Neu5Gc(b2-6)Gal(b1-4)GlcNAc. Put shortly:
as §1

The other results are listed elsewhere or left out.

B1: CV-2L (Chromobacterium violaceum), Q7NX84 (protein)
chain: MAQQGVFTLPARINFGVTVLVNSAATQHVEIFVDNEPRAAFSGVGTGDNNLGTKVINSGSGNVRVQITANGRQSDLVSSQLVLANKLNLAVVGSEDGTDMDYNDSIVILNWPLG
For B1, the “glycan array binding signal (z-score)” value in experiment [1] is -0.359; in experiment [2] it was -0.331; in experiment [3], -0.344; in experiment [4], 0.624; with Neu5Gc(a2-3)Gal(b1-4)Glc it was -0.346; in [5], -0.332. The “glycan array binding signal (z-score)” value in experiment [6] was -0.317; in experiment [7], -0.326; with Neu5Gc(a2-6)GalNAc it was -0.343; in [8], -0.328.
